Laboratory results from article PMC7819943, “Rice protein-binding microarrays: a tool to detect cis-acting elements near promoter regions in rice”.
The other results are listed elsewhere or left out.

Target: T1, OsWOX13 (Oryza sativa, UniProt Q5QMM3 1-267)
T1 sequence: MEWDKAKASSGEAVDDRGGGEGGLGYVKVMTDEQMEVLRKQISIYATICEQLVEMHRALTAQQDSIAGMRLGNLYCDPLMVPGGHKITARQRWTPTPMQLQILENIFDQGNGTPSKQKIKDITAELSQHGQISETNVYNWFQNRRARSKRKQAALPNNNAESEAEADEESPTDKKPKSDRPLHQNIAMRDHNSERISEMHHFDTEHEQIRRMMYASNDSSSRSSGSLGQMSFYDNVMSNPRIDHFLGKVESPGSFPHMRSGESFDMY
Assay: protein-binding microarray (RPBM); PBS, 2% BSA, 51.3 ng/ul salmon testes DNA, 50 uM zinc acetate, 200 nM TF, 25 C, 1 h; high values mean tight binding
Details: protein: recombinant; tags: N-terminal polyhistidine and DsRed monomer fusion (pET32a); label: CyDye5-dUTP incorporated in the synthesized complementary strand; 3' TTTTT single-stranded linker to array surface; dsDNA, one strand shown
Method in brief: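 Polyhistidine-tagged DsRed fusions of transcription factors, joined at the N-terminus, were expressed in E. coli BL21-CodonPlus and isolated on Ni–NTA. They were incubated at 200 nM for 1 h at 25 °C on a custom Agilent array, double-stranded and BSA-blocked, in PBS with 2% BSA, salmon testes DNA and 50 µM zinc acetate. The binding signal is per-feature fluorescence intensity (arbitrary units) read on an Axon 4000B scanner after washing.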

Sequence	binding signal
CATAAATTTGTTTATTCTATACATAAACAGGGAAAGTTTCCGGAGTCACCTAGTGCAG	18500 fluorescence intensity (a.u.)
ACAAACTGCTGTTATCCATCCAATCCAGTGTCCCAAAGCACGGAGTCACCTAGTGCAG	7640 fluorescence intensity (a.u.)
AAGGATTAATTTCTAAATGATAAAAGTTTTGTTGTTATGACGGAGTCACCTAGTGCAG	26000 fluorescence intensity (a.u.)
GAATCAAGTGATTGGGATAGATCGGTCACTTGCTGAGACACGGAGTCACCTAGTGCAG	15800 fluorescence intensity (a.u.)
TGTTATTGATGTGCGTCGGATCTTGATCTAAGGGTTGAAACGGAGTCACCTAGTGCAG	3830 fluorescence intensity (a.u.)
GAGAGACAATTGACTGGACTTTTGTCGTGTTGACCACAGCCGGAGTCACCTAGTGCAG	19500 fluorescence intensity (a.u.)
AAATGTATAATTAATTCAATTGGCGATATTATAATATTAACGGAGTCACCTAGTGCAG	4440 fluorescence intensity (a.u.)
AATAAATAATGTAATTAACTAACAGTGCAAACTATTTCAACGGAGTCACCTAGTGCAG	13200 fluorescence intensity (a.u.)
ACATAATTATAACTTGTACTTATGTAACTACAACGCAAATCGGAGTCACCTAGTGCAG	26500 fluorescence intensity (a.u.)
GTTTTAAGAGTAAAGTGCATTGGTGGTCCTTAAACTTATACGGAGTCACCTAGTGCAG	3880 fluorescence intensity (a.u.)
CATAATTGCTGATATTTTGTCTTTGGAGTTTGATCCATGGCGGAGTCACCTAGTGCAG	44200 fluorescence intensity (a.u.)
GTTAATAGATACAGGATTTATTGATATATGTTGTTGTACTCGGAGTCACCTAGTGCAG	37400 fluorescence intensity (a.u.)
CGTTCAAATTAGTAGTTAGATATAAAACGAATGAAGTAAACGGAGTCACCTAGTGCAG	9800 fluorescence intensity (a.u.)
TCCAAACGAATTAACAACAAATCAGTCGCGCGTTTGAAACCGGAGTCACCTAGTGCAG	4980 fluorescence intensity (a.u.)
ATACAAATCACTGCCCATATCGCCCTCAAATACAAAATACCGGAGTCACCTAGTGCAG	5250 fluorescence intensity (a.u.)
TTGGATTGGATACGGAAATACAGAAAGGGGTGGTAACTAACGGAGTCACCTAGTGCAG	6120 fluorescence intensity (a.u.)
ATGATTTGACACTTTATATGTTGCCAATTTGATTGTATTTCGGAGTCACCTAGTGCAG	29000 fluorescence intensity (a.u.)
GAGAGTCTCGCCAATCTATGCAGCAATAATTACAACGAGCCGGAGTCACCTAGTGCAG	3890 fluorescence intensity (a.u.)
GCTCAATCATGTGGTTACCTTCCATACCATCTTTCTGCCTCGGAGTCACCTAGTGCAG	18900 fluorescence intensity (a.u.)
CGGAGCAGATTAGCGCTAATGCATAAAGCTGGAGTACTCCCGGAGTCACCTAGTGCAG	4250 fluorescence intensity (a.u.)
AGAAATTGAGAGGATGACATGTGGATCCTACATATCAGTGCGGAGTCACCTAGTGCAG	33400 fluorescence intensity (a.u.)
TTTATGATTTCTTGGACAATTTTGGAGCCATTTCGTTTAGCGGAGTCACCTAGTGCAG	10600 fluorescence intensity (a.u.)
TATAAAATTATAGATAATATAACATGTTTGCATGATGTTTCGGAGTCACCTAGTGCAG	5670 fluorescence intensity (a.u.)
AATCTTTATTGATTGTAAATTTAGCTTATGTATTGGTTAACGGAGTCACCTAGTGCAG	27000 fluorescence intensity (a.u.)
ATTGCACTCAAATAAATTAGGAAATCTCCTTTGTGAATTCCGGAGTCACCTAGTGCAG	3440 fluorescence intensity (a.u.)
CTAAAATTTATTTATTTTAATAATATTCTCCCATGATTAGCGGAGTCACCTAGTGCAG	6240 fluorescence intensity (a.u.)
TATATATCTTAATTAACGTTGCTGGTGTACTGAGAACAAGCGGAGTCACCTAGTGCAG	4930 fluorescence intensity (a.u.)

Sequence	binding signal
ATTCATTTAGATGTTAATAAATTTAGACATATATATGTATCGGAGTCACCTAGTGCAG	9560 fluorescence intensity (a.u.)
CTGGACTGTCAAATCAAGGAGGATTGCGTACTAATCATGTCGGAGTCACCTAGTGCAG	9940 fluorescence intensity (a.u.)
TGATCAAATAATTGACCATAATTTTCCAGCAATTTTAAATCGGAGTCACCTAGTGCAG	21600 fluorescence intensity (a.u.)
AGTAATTTACTTGCTAGCTTGCAACTATTTCTTAGTACATCGGAGTCACCTAGTGCAG	3460 fluorescence intensity (a.u.)
TAGCTAATTCATATAATAATCACCTATAAACATATACTACCGGAGTCACCTAGTGCAG	3660 fluorescence intensity (a.u.)
TTGACTAATCTATGTGTATATCCTGATACTGGCCGACATCCGGAGTCACCTAGTGCAG	3400 fluorescence intensity (a.u.)
ATATTTAAATTAATATTTTAGAACGGCCATTATATAAAATCGGAGTCACCTAGTGCAG	4710 fluorescence intensity (a.u.)
ATATCTATCTCTGATTATCCAATTGAAGTGCAACAAGAACCGGAGTCACCTAGTGCAG	4450 fluorescence intensity (a.u.)
ATCAAAATATCAGATACAGCCAATCAGCCATGCGTACCAACGGAGTCACCTAGTGCAG	4580 fluorescence intensity (a.u.)
AATGTGTTAGCGTTTAATTTGCGATTGGATTTGTTTCAGGCGGAGTCACCTAGTGCAG	3560 fluorescence intensity (a.u.)
AAATGAATGCTGATTGCTCCCACGTTGGAAAATTGGGGCTCGGAGTCACCTAGTGCAG	21100 fluorescence intensity (a.u.)
GTTACAGTGTAATTTATGAAACTTACACGGTAACTTTTGTCGGAGTCACCTAGTGCAG	3720 fluorescence intensity (a.u.)
TTGTAATTACATAAATTATACGAATTGTAAAGATTTGGCACGGAGTCACCTAGTGCAG	54600 fluorescence intensity (a.u.)
TACTAATCATAGACTAATTAGGCTCAAAAGATTCGTCTCACGGAGTCACCTAGTGCAG	31300 fluorescence intensity (a.u.)
AAGGAAAAGGAAAAGAAAATAATTGACGACGTTGACCTCGCGGAGTCACCTAGTGCAG	3330 fluorescence intensity (a.u.)
AGGGATAAATAATTGTTAGAGTATTTTATCATCTCAACTGCGGAGTCACCTAGTGCAG	3960 fluorescence intensity (a.u.)
AAAGATTTGTCTCACAATTTACACACAATCTGTGTAATTACGGAGTCACCTAGTGCAG	3600 fluorescence intensity (a.u.)
AAAATTAAGCTCTAATTAATTAATCTTTTGTAGAAGTTAACGGAGTCACCTAGTGCAG	13900 fluorescence intensity (a.u.)
TCACTTATCACCAGTATTGATTTGTTGAATTATTATCATTCGGAGTCACCTAGTGCAG	9780 fluorescence intensity (a.u.)
CACCAAAACAAATTTGTTAAACACAAGCGTTGATGAAGCACGGAGTCACCTAGTGCAG	10300 fluorescence intensity (a.u.)
TCGTCTTCTCCACATCAATCACCAGCTATCTCGATCGTGACGGAGTCACCTAGTGCAG	7980 fluorescence intensity (a.u.)
TAAATTGACACATCACCTCTAGGATCCTACGTGGCGTTGACGGAGTCACCTAGTGCAG	38000 fluorescence intensity (a.u.)
TGGATTGAAACCTAAATTGCCCTAATTTCTTAGACCCCTACGGAGTCACCTAGTGCAG	33600 fluorescence intensity (a.u.)
ATGGCTATAATTGTGAACCAAGTCATCAAACCTACTGGTTCGGAGTCACCTAGTGCAG	4510 fluorescence intensity (a.u.)
GTATTAATTTCTACTACTATATACGAAGGGGTACCCTTTTCGGAGTCACCTAGTGCAG	3400 fluorescence intensity (a.u.)
ATTTAGACAGGTTCAGACCATCTCAATAAGAGGTACGTAACGGAGTCACCTAGTGCAG	19500 fluorescence intensity (a.u.)
TTTAATAGGATGTATCATAAAATTAAATTTATCATAGAACCGGAGTCACCTAGTGCAG	11700 fluorescence intensity (a.u.)
